Assay results as given in the BET-seq Pho4 binding data (Le et al. 2018).
The other results are listed elsewhere or left out. Values were computed here from the reads of four pooled replicates and scatter widely.

Each sequence was assayed against T1, Pho4 (S. cerevisiae) (UniProt P07270) (assay: relative binding free energy (BET-seq); higher = weaker binding). Conditions: reference: library average.
T1 sequence: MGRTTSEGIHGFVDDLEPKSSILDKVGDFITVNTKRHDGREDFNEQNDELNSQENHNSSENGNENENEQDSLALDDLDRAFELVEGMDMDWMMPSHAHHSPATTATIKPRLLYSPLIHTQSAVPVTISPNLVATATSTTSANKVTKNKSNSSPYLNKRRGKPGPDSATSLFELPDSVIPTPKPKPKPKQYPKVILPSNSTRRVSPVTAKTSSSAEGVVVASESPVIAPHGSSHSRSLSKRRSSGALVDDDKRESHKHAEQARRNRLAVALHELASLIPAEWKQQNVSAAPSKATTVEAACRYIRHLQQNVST

Sequence | relative binding free energy
GGTTGCACGTGCTGGT | -0.01 kcal/mol
GAGACCACGTGGGGGA | -0.12 kcal/mol
CTTGTCACGTGTCTTA | 0.13 kcal/mol
GTGTGCACGTGGACGC | 0 kcal/mol
GTTGGCACGTGATGGC | 0.09 kcal/mol
TTTTTCACGTGGACTG | 0.23 kcal/mol
GTGTCCACGTGGGATA | -0.04 kcal/mol
AAGTACACGTGGGTAA | -0.03 kcal/mol
CGGTACACGTGATTTG | 0.2 kcal/mol
GAGGACACGTGGTAGG | 0.09 kcal/mol
GTTTCCACGTGGTATT | 0.01 kcal/mol
CTTGTCACGTGAGAGA | 0.37 kcal/mol
ATTAACACGTGTTTCT | -0.04 kcal/mol
GATTTCACGTGTGTCT | 0.33 kcal/mol
AAGATCACGTGGGTGC | 0.09 kcal/mol
GTCGTCACGTGGTGAA | 0.01 kcal/mol
ATGGTCACGTGCGAGA | 0.07 kcal/mol
GATGACACGTGTTTAG | 0.16 kcal/mol
AGCTTCACGTGAAGGT | 0.28 kcal/mol
TTTGACACGTGAGGTC | 0.11 kcal/mol
AGAAGCACGTGGGGGA | -0.14 kcal/mol
GTGTGCACGTGAGTAG | 0.28 kcal/mol
GGTTGCACGTGTAGCT | 0.12 kcal/mol

Sequence | relative binding free energy
TGTCTCACGTGGAGTA | 0.25 kcal/mol
ACGTTCACGTGGTGGG | 0.29 kcal/mol
TTAGACACGTGGAGCG | 0.02 kcal/mol
GGTTTCACGTGGGGGA | 0.28 kcal/mol
GAGTCCACGTGTTGGG | 0.08 kcal/mol
TCAATCACGTGGTGGA | 0.16 kcal/mol
ATGTGCACGTGCGGGC | -0.03 kcal/mol
AGATACACGTGTAGTT | 0.11 kcal/mol
TTTAGCACGTGGGAGC | -0.19 kcal/mol
TAAGTCACGTGTTGGT | 0.19 kcal/mol
AATTACACGTGGTAGG | 0.09 kcal/mol
AGGTACACGTGGGTTG | -0.12 kcal/mol
GTCGTCACGTGTTAGG | 0.21 kcal/mol
CTAGTCACGTGGTTAT | -0.07 kcal/mol
GCTGTCACGTGTTGAT | 0.12 kcal/mol
TGGCTCACGTGATTGA | 0.34 kcal/mol
TGTGCCACGTGTGCTG | -0.07 kcal/mol
TCTTTCACGTGGGAGA | 0.32 kcal/mol
AGCGTCACGTGTGGAA | 0.16 kcal/mol
TAGTTCACGTGTTCAG | 0.21 kcal/mol
GTGAGCACGTGAGGTG | 0.18 kcal/mol
TGTGGCACGTGTTTTC | 0.07 kcal/mol
ATTATCACGTGGGGGC | 0.04 kcal/mol

Sequence | relative binding free energy
GAAGTCACGTGGTTGA | 0.06 kcal/mol
TTGGTCACGTGAGGAA | 0.24 kcal/mol
GTGTTCACGTGTCGCG | 0.12 kcal/mol
TTTCGCACGTGTAGGC | 0.1 kcal/mol
TTCGGCACGTGACATG | 0.07 kcal/mol
GTCGTCACGTGTGGAT | 0.2 kcal/mol
TTACCCACGTGGTGTG | -0.08 kcal/mol
AGGTGCACGTGCGCGG | -0.23 kcal/mol
AGGAGCACGTGGGCAA | -0.14 kcal/mol
AGGAACACGTGGGGGC | -0.03 kcal/mol
GGATACACGTGGTGAA | 0.02 kcal/mol
TGTTTCACGTGGTTTG | 0.33 kcal/mol
GTTATCACGTGGATCG | 0.24 kcal/mol
TAAATCACGTGGCTTG | -0.02 kcal/mol
TCTAGCACGTGGGCTG | -0.22 kcal/mol
GGTGGCACGTGGGAGA | -0.07 kcal/mol
GGACTCACGTGTGGGT | 0.14 kcal/mol
TGTCTCACGTGAGCGT | 0.23 kcal/mol
TGCGTCACGTGTGTTG | -0.1 kcal/mol
TATAGCACGTGGGGCA | -0.17 kcal/mol
TTGGGCACGTGTGTAG | 0.01 kcal/mol
ATTTACACGTGCGGTG | 0.16 kcal/mol
TTGATCACGTGTTTCA | 0.06 kcal/mol

Sequence | relative binding free energy
AGGGTCACGTGCTGTC | 0.05 kcal/mol
TTATGCACGTGCCGGG | -0.2 kcal/mol
CATGACACGTGGTTGG | 0.09 kcal/mol
ATTTACACGTGAATGT | 0.37 kcal/mol
TTCTTCACGTGTTTGC | 0.31 kcal/mol
AGTGCCACGTGGTTGA | -0.26 kcal/mol
TTTAACACGTGTGTGG | -0.07 kcal/mol
TAGTCCACGTGTGTAA | 0.17 kcal/mol
GGAGTCACGTGGTAAT | 0.16 kcal/mol
TAGGCCACGTGGGCAG | -0.18 kcal/mol
ACTGGCACGTGCAGGG | -0.04 kcal/mol
TTAATCACGTGGTAGG | 0.2 kcal/mol
GGGTGCACGTGTCGCG | 0.1 kcal/mol
TTCTGCACGTGTGTAG | -0.08 kcal/mol
TTATTCACGTGGGCTT | 0.19 kcal/mol
CAATTCACGTGTTAGT | 0.33 kcal/mol
GGATTCACGTGTCTTT | 0.24 kcal/mol
GGGTACACGTGTGAAG | 0.19 kcal/mol
AGGTACACGTGCAGGT | -0.02 kcal/mol
CGTAGCACGTGGGGTG | -0.36 kcal/mol
ATCGGCACGTGGGCGG | -0.12 kcal/mol
CGGGGCACGTGATGCT | -0.03 kcal/mol
CTTTACACGTGTAAGT | 0.14 kcal/mol

Sequence | relative binding free energy
TGTCGCACGTGGTAAT | -0.09 kcal/mol
TGTTTCACGTGGGTCG | 0.19 kcal/mol
AGGATCACGTGTTGCG | 0.12 kcal/mol
CTGACCACGTGGGGTT | -0.21 kcal/mol
GGGGCCACGTGGGGAG | -0.17 kcal/mol
GGGCACACGTGTTAGT | 0 kcal/mol
CGAGTCACGTGGGAGA | 0.13 kcal/mol
GAGTGCACGTGTGGGC | -0.03 kcal/mol
TGACGCACGTGTTGGC | 0.13 kcal/mol
GGCGGCACGTGCTAGG | -0.25 kcal/mol
TTTGACACGTGGGTTC | -0.13 kcal/mol
AGTTACACGTGGAGGA | 0.13 kcal/mol
GACGTCACGTGTCGGT | 0.13 kcal/mol
TCGGTCACGTGTAGGT | 0.1 kcal/mol
GCGGTCACGTGGTGTC | 0.13 kcal/mol
TGTGTCACGTGGCACG | -0.04 kcal/mol
TTAGGCACGTGTTGAC | -0.11 kcal/mol
ATATTCACGTGGTGGT | 0.3 kcal/mol
TTACGCACGTGTTTGC | -0.15 kcal/mol
TATGGCACGTGAATTT | 0.17 kcal/mol
TAGTGCACGTGCGTTT | 0.03 kcal/mol
TATAACACGTGTTGTA | -0.05 kcal/mol
TGTTTCACGTGATCGT | 0.26 kcal/mol
